Values marked as one replicate rest on one cluster of the flow cell; about a third of the high ones do not repeat.
Tested on: ATP
Assay: switch fluorescence ratio, 500 uM ATP over buffer (Cy3 cluster intensity, sum of 5 cycles each) (fold (ratio)); higher = stronger signal-on switching upon ATP binding; sequences stand for … in TCGTCGGCAGCGTCAGATGTGTATAAGAGACAGTTTTTTTTTTTTTTTTTTTTTTTTT…TC
Details: aptamer strand: ATP DNA aptamer (quencher-CACCTGGGGGAGTATTGCGGAGGAAGG + anchor), 100 nM annealed; ATP concentration: 500 uM; one replicate
Outline: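 Five buffer/ATP imaging cycles were run on Cy3-labelled switching-strand clusters on a modified Illumina MiSeq flow-cell, with NaOH stripping and re-annealing between cycles. In each cycle, clusters annealed to 100 nM quencher-labelled ATP aptamer were imaged in selection buffer, then after 15 min with 500 uM ATP at 22 °C. Per cluster, the fluorescence ratio is summed target-cycle over summed buffer-cycle Cy3 intensity, averaged per switch-domain sequence. Only clusters within 100-1000 RFU were kept.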
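Further: ATP exposure 15 min at 22 °C before imaging.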

Row | Sequence | switch fluorescence ratio
1 | GGTCCGGTTT | 1.02
2 | GGTCCTGCGA | 1.39
3 | GGTCGATGCG | 1.04
4 | GGTCGATTGA | 0.987
5 | GGTCGCTCGG | 0.949
6 | GGTCGTCGT | 1.06
7 | GGTCGTGCCC | 0.977
8 | GGTCGTTCT | 0.987
9 | GGTCGTTTAT | 0.996
10 | GGTCTAGTAC | 0.996
11 | GGTCTATCAG | 0.978
12 | GGTCTCAAGT | 0.98
13 | GGTCTCCGTG | 0.991
14 | GGTCTGCTCC | 1.06
15 | GGTCTTATGA | 1
16 | GGTCTTTTT | 0.977
17 | GGTGAAACGC | 1.03
18 | GGTGAAAGAA | 0.935
19 | GGTGAAGTA | 0.937
20 | GGTGAATTGC | 0.974
21 | GGTGACCGGC | 0.974
22 | GGTGACGTCG | 1.06
23 | GGTGACTTGC | 1.07
24 | GGTGAGTTCC | 0.986
25 | GGTGAGTTGC | 1.03
26 | GGTGATAGGC | 0.953

Row | Sequence | switch fluorescence ratio
27 | GGTGCACGG | 0.987
28 | GGTGCAGCAA | 1.04
29 | GGTGCAGGGC | 0.816
30 | GGTGCCCACT | 1
31 | GGTGCCCAGC | 0.96
32 | GGTGCGATGA | 1.02
33 | GGTGCGGGGA | 1.04
34 | GGTGCTAGAT | 1.02
35 | GGTGCTGCCC | 0.968
36 | GGTGCTGTTG | 0.966
37 | GGTGCTTGCC | 0.929
38 | GGTGGATTGA | 0.977
39 | GGTGGCAAAA | 1.02
40 | GGTGGCATCA | 0.962
41 | GGTGGCATCG | 0.974
42 | GGTGGTAATA | 0.962
43 | GGTGGTACGG | 1.07
44 | GGTGTAATTA | 0.986
45 | GGTGTAGCAA | 1.64
46 | GGTGTAGGTT | 0.957
47 | GGTGTCCCGG | 1.03
48 | GGTGTCTCGA | 1.05
49 | GGTGTCTTGT | 0.989
50 | GGTGTGGGG | 0.932
51 | GGTGTGTTTC | 1
52 | GGTGTTCGTC | 0.983

Row | Sequence | switch fluorescence ratio
53 | GGTGTTTCTA | 0.995
54 | GGTTAAGACG | 1.02
55 | GGTTAAGCGA | 1.03
56 | GGTTAATCGC | 1.03
57 | GGTTAATGGT | 0.997
58 | GGTTAATTGC | 0.884
59 | GGTTACCTAA | 0.979
60 | GGTTATAAAA | 1.03
61 | GGTTATTACG | 1.02
62 | GGTTATTGAT | 0.995
63 | GGTTATTGCC | 1.06
64 | GGTTCACTTA | 1.01
65 | GGTTCAGTCA | 0.965
66 | GGTTCATGTT | 0.983
67 | GGTTCATTTG | 0.997
68 | GGTTCGAATT | 0.989
69 | GGTTCGCGGC | 1.06
70 | GGTTCTGACG | 0.941
71 | GGTTCTTGCG | 1.05
72 | GGTTGAACTG | 0.969
73 | GGTTGAGCAT | 1.02
74 | GGTTGATAGT | 0.922
75 | GGTTGATCAC | 0.996
76 | GGTTGCAACG | 1.02
77 | GGTTGCTTTC | 1.01
78 | GGTTGGAGAG | 0.966

Row | Sequence | switch fluorescence ratio
79 | GGTTGGCACA | 1.01
80 | GGTTGGCTTG | 1.02
81 | GGTTTAGAAC | 0.985
82 | GGTTTATGCC | 0.923
83 | GGTTTATTCC | 1.12
84 | GGTTTCAACC | 0.98
85 | GGTTTCCTGC | 0.971
86 | GGTTTCTTTG | 0.954
87 | GGTTTGAGTG | 0.953
88 | GGTTTGCTTT | 1.01
89 | GGTTTGTTGG | 0.987
90 | GTAAAAAACT | 1.04
91 | GTAAAACCCT | 1.12
92 | GTAAAACTCG | 0.852
93 | GTAAAAGCGA | 1.02
94 | GTAAAGGGCT | 1.04
95 | GTAAATGAAA | 1.04
96 | GTAACCAGAT | 1.04
97 | GTAACCGGCG | 0.995
98 | GTAACGGGTG | 1.12
99 | GTAACTTGGG | 1
100 | GTAAGAAGTC | 1.1
101 | GTAAGAATAG | 1.03

— the supplement of paper PMC10126150
